This is one part of the list. At the low end of the ranking the order means little. The protein was read in a cell extract, so binding may be indirect.
molecular target: T1, HNF4alpha8 (COS-7 nuclear extract) (UniProt P41235-5); test: protein-binding microarray; settings: COS-7 nuclear extract on double-stranded Agilent 4x180k PBM; binding buffer, salt, pH and temperature not given; high values mean tight binding; double strand, one strand shown; sequences stand for … in …GCCTAGGGAGATTAGAGTATCGGTCGA
T1 sequence: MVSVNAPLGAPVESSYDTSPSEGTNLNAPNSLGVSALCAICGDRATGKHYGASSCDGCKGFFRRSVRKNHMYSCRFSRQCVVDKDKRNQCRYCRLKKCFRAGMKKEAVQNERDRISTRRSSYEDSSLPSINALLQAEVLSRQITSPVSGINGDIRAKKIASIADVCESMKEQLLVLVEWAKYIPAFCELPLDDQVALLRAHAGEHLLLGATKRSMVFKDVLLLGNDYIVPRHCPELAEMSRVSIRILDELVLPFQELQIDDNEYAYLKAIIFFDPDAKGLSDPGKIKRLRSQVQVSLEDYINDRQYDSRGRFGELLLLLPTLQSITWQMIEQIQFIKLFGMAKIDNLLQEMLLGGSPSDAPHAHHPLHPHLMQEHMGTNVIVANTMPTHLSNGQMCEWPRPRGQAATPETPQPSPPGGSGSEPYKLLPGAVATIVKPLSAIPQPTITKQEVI

Row | Sequence | binding signal (log2 normalized intensity)
1 | CTAGTTCTTATCTCAGGTCCTGCCATTAAA | 0.453
2 | CAGCTCAGCTAGTGAGATACGGCCTGGACT | 1.92
3 | GTCGCGTATCTGACTTTATCATTGGACTCT | 5.43
4 | TCTGTTGAGAACTGGAGCAAAGGTCACTCT | 6.54
5 | AGAAAACGTAAGCCCTCTATCAAAGGAGAA | -1.31
6 | ATGGCAGGGGTTAACCTCTATTGACCTTCT | 4.96
7 | TCTCCTAAAGTGACTAGAGAGCAGGAGCCA | -1.41
8 | GCCGGCCCGGTGCGCTGGCCTTGCTTTTCA | -1.38
9 | AGTTCTGTCCTTTGTCCTGTACCTGGGAAG | 2.47
10 | ATAAATAAGAAGCCTTATCAGTATCAATGA | -1.18
11 | CCATTTCTCAGGTTGTGTTTGCAGTGAGTA | 1.77
12 | TTCCAAACATGTTTCGAACGGTTGCAGCAT | -1.27
13 | CCAGCTGCAGAGGAAGGACATGGTAAAGAT | -1.24
14 | AGAACAAACAATGGTTTGGGACAAAGTTTG | 0.64
15 | GAAGGCCAGGCAGCACAATTTGTGTCTCTC | -1.18
16 | CACTGGGGTTTAAAGTTTATAGGCTAGAAT | 0.688
17 | CTAAGCAGCTGCAGTTTCTGCTATCTGCCT | -1.42
18 | CCGTCCTCCCCCACGACAGAATTGACTCTT | 4.1
19 | AAGCTGTGGGATCCAACCAGAGGGAAGAGA | -1.37
20 | CTGCCCAGACCTTATCTTGCATTTCTTCAG | 0.246

Row | Sequence | binding signal (log2 normalized intensity)
21 | TTCACCGTATTATCTTATCTCCTCTGTAGG | 1.29
22 | ACCTCAAATGCAGGTGAGAGGCCTCTAAGC | -1.36
23 | AGCTCCAGGAGACGTAGAGATAAGGTCTTC | -1.28
24 | TTAAGGACAAAGGCTTTGAGTCAACACACC | -1.21
25 | CTCGAGGTGGACTTTCCCCCCTCACACTTT | 5.92
26 | TTTTCCCTGCTGCTGGCTGGCGGCCTTTGG | 2.25
27 | GGCTTGTGCTTAGCTATTTCGTTGAATGCT | -1.29
28 | GGTACGTTCCAATATTCTGGCTTCTCGTGA | -1.24
29 | GGGAAAAGATGGTCTCTCACCTGGCTTCCC | -1.33
30 | CCCGGCTTTGGGCTTGAGCAGCTGGTGGAG | -1.24
31 | AGAAAAGAAAGTGAGGAATGCAACCACACC | -1.12
32 | ATTGGTTTCCGCTAAGTCCAAAGGTAAAAA | 4.56
33 | GACCCTCGGGCCTCCCTAGAGGCCTTCTCT | -1.31
34 | TATGTTGCTGATAAAGTCTATCTTAGCCAT | -0.393
35 | CCCGCCCAGATGTCTGGCTAAGACCTTTAG | 2.3
36 | AACTGCAGGAGTCGGGAGGTAGGGGTGGCG | -1.32
37 | TGGCTCCAAAGTCTATGTGTGCTTTCTTCA | 2.67
38 | AATACTTGCCTAAGGTCAATGTCCTTTTTC | 4.53
39 | TGTTCTTGCCTGATAGCATCGTGGGTATTT | 1.25
40 | GCGCCGGCCTCGGTCCTCGCTCGCCCGAGC | -1.26

Source: article PMC10726135
